{"source": "PubChem BioAssay (NCATS)", "note": "The inconclusive results got no clear call from the source; some entries with a clear call stand among them for comparison. Potencies of inconclusive entries are doubtful fits and often do not repeat. Activity calls are given as the source filed them. Calls come from the whole dose curve; as a rule, active = well fitted cell-killing curve with a large enough effect; inconclusive = small, poorly fitted or top-dose-only effect, or effect the other way; inactive = no such curve, though single readings can be large or run the other way. Potency is the fitted concentration of half-maximal effect; tags give direction and shape of the fitted curve."}
{"experiment": "Viability qHTS for spleen associated tyrosine kinase inhibitor (SYKi) naive MV4-11 cells (AID 1963823); note: nearly all actives have a fitted effect of over 40% in size", "conditions": "MV4-11 AML viability, CellTiter-Glo luminescence, 72 h; viability (% of control): at 45 µM (top of the series)", "method_in_brief": "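Compounds were dispensed acoustically onto plates, MV4-11 cells (SYKi-naive) added at 500 per well, and plates incubated 72 hr at 37 C. CellTiter-Glo was added and luminescence measured after 10 min.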"}
{"compound": "C/C(=C(\\CCOP(=O)(O)O)SC(=O)c1ccccc1)N(C=O)Cc1cnc(C)nc1N", "Potency": "inconclusive: 1.19 µM [cytotoxic, partial curve, poor fit]"}
{"compound": "Cc1cc(Nc2nc(-c3ccccc3)nc3ccccc23)n[nH]1", "Potency": "inconclusive: 0.291 µM [cytotoxic, full curve]"}
{"compound": "COc1cc(C2Oc3c(OC)cc(/C=C/C(=O)OC4CC(O)(C(=O)O)CC(O)C4O)cc3C2CO)ccc1O", "note": "(stereo not given)", "viability (% of control)": "inactive: 91% [at 17.3 µM]"}
{"compound": "O=C(C1OC1/C=C/c1ccc2c(c1)OCO2)N1CCCCC1", "note": "(stereo not given)", "Potency": "inconclusive: 32.6 µM [cytotoxic, single point]"}
{"compound": "CCOC(=O)C(CCc1ccccc1)NC(C)C(=O)N1C(=O)N(C)CC1C(=O)O", "note": "(stereo not given)", "viability (% of control)": "inactive: 79.3%"}
{"compound": "NS(=O)(=O)c1cc2c(cc1C(F)(F)F)NC(Cc1ccccc1)NS2(=O)=O", "note": "(stereo not given)", "viability (% of control)": "inactive: 87.4%"}
{"compound": "Cc1cc(-n2c(=O)ccc3cnc4[nH]ccc4c32)ccc1F", "Potency": "inconclusive: 14.8 µM [cytotoxic, partial curve]"}
{"compound": "CC(=O)N1CCc2ccc(O)c(OC3OC(COC4OCC(O)(CO)C4O)C(O)C(O)C3O)c2C1Cc1ccc(O)cc1", "note": "(stereo not given)", "viability (% of control)": "inactive: 83.3% [at 17.3 µM]"}
{"compound": "CC(C)=CCC/C(C)=C/CO[C@@H]1O[C@H](CO[C@@H]2O[C@@H](CO)[C@H](O)[C@H]2O)[C@@H](O)[C@H](O)[C@H]1O", "viability (% of control)": "inactive: 81.6% [at 17.3 µM]"}
{"compound": "C/C(=C\\CCC(C)(C)O)CCO[C@@H]1O[C@H](CO[C@@H]2O[C@@H](C)[C@H](O)[C@@H](O)[C@H]2O)[C@@H](O)[C@H](O)[C@H]1O", "viability (% of control)": "inactive: 88.3% [at 17.3 µM]"}
{"compound": "COC(CCc1ccc(O)cc1)CC(=O)CCc1ccc(O)cc1", "note": "(stereo not given)", "Potency": "inconclusive: 9.04 µM [cytotoxic, partial curve]"}
{"compound": "CCCCCCCCCCCCCCCC[N+](C)(C)CCN(Cc1ccc(OC)cc1)c1ncccn1", "Potency": "active: 2.66 µM"}
{"compound": "OC[C@H]1O[C@@H](OCc2ccccc2)[C@H](O)[C@@H](O)[C@@H]1O", "viability (% of control)": "inactive: 75.8%"}
{"compound": "CCN1C(=O)CNc2ncc(-c3ccc(-c4ncn[nH]4)nc3C)nc21", "Potency": "active: 0.417 µM"}
{"compound": "S=C(c1ccc(-c2ccc(Cl)c(Cl)c2)o1)N1CCCCC1", "Potency": "inconclusive: 0.116 µM [rising, full curve]"}
{"compound": "Nc1ncccc1-c1nc2ccc(-c3ccccc3)nc2n1-c1ccc(C2(N)CCC2)cc1", "Potency": "inconclusive: 6.61 µM [cytotoxic, full curve]"}
{"compound": "Cc1cc(C)c(Nc2ccnc(Nc3ccc(C#N)cc3)n2)c(C)c1", "Potency": "active: 2.31 µM"}
{"compound": "NS(=O)(=O)Nc1ncnc(OCCOc2ncc(Br)cn2)c1-c1ccc(Br)cc1", "Potency": "inconclusive: 16.4 µM [cytotoxic, partial curve]"}
{"compound": "O=C(NCN1CCOCC1)c1cnccn1", "viability (% of control)": "inactive: 85.6%"}
{"compound": "C[C@@H](CN1CCC(n2c(=O)[nH]c3cc(Cl)ccc32)CC1)NC(=O)c1ccc2ccccc2c1", "Potency": "active: 20.6 µM"}
{"compound": "CC(=O)OC1(C)CC(O)C2(O)C=COC(OC3OC(CO)C(O)C(O)C3O)C12", "note": "(stereo not given)", "viability (% of control)": "inactive: 78.4% [at 17.3 µM]"}
{"compound": "C=C1C(=O)O[C@@H]2/C=C(/C)[C@@H](OC(C)=O)C/C=C(\\C)C[C@@H](OC(=O)/C(=C/CO)CO)[C@@H]12", "Potency": "active: 3.99 µM"}
{"compound": "O=C(Nc1cc(C(F)(F)F)ccc1N1CCCCC1)c1ccncc1", "Potency": "inconclusive: 13 µM [cytotoxic, partial curve, poor fit]"}
{"compound": "C/C(=C\\CCC(C)CCO)C(=O)OC1(C)CCC2C(C(=O)O)=COC(OC3OC(CO)C(O)C(O)C3O)C21", "note": "(stereo not given)", "viability (% of control)": "inactive: 107% [at 17.3 µM]"}
{"compound": "CC1=CC(=O)CC2C1(O)CCC(C)C21CC(c2ccoc2)OC1=O", "note": "(stereo not given)", "viability (% of control)": "inactive: 71.4%"}
{"compound": "O=S(=O)(c1cccc2c(Cl)cccc12)N1CCCNCC1", "Potency": "inconclusive: 16.4 µM [cytotoxic, partial curve]"}
{"compound": "COc1cccc(-n2nc(C(=O)O)cc2-c2ccc(C3CCCCC3)c(Cl)c2)c1", "Potency": "inconclusive: 23.1 µM [cytotoxic, partial curve]"}
{"compound": "C=C1C[C@]23C[C@H]1CC[C@H]2[C@]1(C)CCC[C@@]2(CO)C(=O)O[C@H]([C@H]21)[C@@H]3O", "Potency": "inconclusive: 20.2 µM [cytotoxic, single point]"}
{"compound": "Cc1c(F)ccc(C(=O)Nc2cc([N+](=O)[O-])ccc2N2CCN(C)CC2)c1Cl", "Potency": "active: 1.32 µM"}
{"compound": "O=C(Nc1ccc2[nH]ncc2c1)C1CCC1", "viability (% of control)": "inactive: 67.4%"}
{"compound": "CC1=C(CCC(C)O[C@@H]2O[C@H](CO)[C@@H](O)[C@H](O)[C@H]2O)C(C)(C)CCC1=O", "note": "(stereo not given in full)", "viability (% of control)": "inactive: 84.2%"}
{"compound": "CCCOC(=O)c1ccccc1", "Potency": "inconclusive: 13.3 µM [cytotoxic, partial curve, poor fit]"}
{"compound": "CC(=O)OC1CC(O)(C(C)C)C2C(OC(=O)c3ccc(O)cc3)C=C(C)C(=O)CC12C", "note": "(stereo not given)", "Potency": "inconclusive: 11.2 µM [cytotoxic, partial curve]"}
{"compound": "Cc1occc(=O)c1O[C@@H]1O[C@H](CO[C@@H]2OC[C@](O)(CO)[C@H]2O)[C@@H](O)[C@H](O)[C@H]1O", "Potency": "inconclusive: 0.0632 µM [rising, full curve, poor fit]"}
{"compound": "CO[C@H]1/C=C/O[C@@]2(C)Oc3c(C)c(O)c4c(O)c(c(/C=N/N5CCN(C)CC5)c(O)c4c3C2=O)NC(=O)/C(C)=C\\C=C\\[C@H](C)[C@H](O)[C@@H](C)[C@@H](O)[C@@H](C)[C@H](OC(C)=O)[C@@H]1C", "Potency": "inconclusive: 18.6 µM [cytotoxic, partial curve]"}
{"compound": "CCOC(=O)Oc1ccc(CCNC(=O)[C@H](CCSC)NC(C)=O)cc1OC(=O)OCC", "viability (% of control)": "inactive: 64.7%"}
{"compound": "O=C1CC2(CCCC2)CC(=O)N1CCNCC1COc2ccccc2O1", "note": "(stereo not given)", "viability (% of control)": "inactive: 69.3%"}
{"compound": "Nc1ncnc2c1nc(Cl)n2C1O[C@H](CO)[C@@H](O)[C@H]1O", "note": "(stereo not given in full)", "Potency": "active: 0.366 µM"}
{"compound": "CC(C)(C)c1ccc(S(=O)(=O)Nc2ccc(Cl)cc2C(=O)c2cc[n+]([O-])cc2)cc1", "Potency": "inconclusive: 18.4 µM [cytotoxic, partial curve]"}
{"compound": "CC(=O)OC1C(O)CC(O[C@@H]2O[C@H](CO)[C@@H](O)[C@H](O)[C@H]2O)C2CCC3C(=O)OC(c4ccoc4)CC3(C)C21", "note": "(stereo not given in full)", "viability (% of control)": "inactive: 75.3% [at 17.3 µM]"}
